Laboratory results reported in the antibiotic and cytotoxicity screens of Wong et al. (2023).
The other results are listed elsewhere or left out.

tested on: HSkMC (human skeletal muscle cells); assay: cytotoxicity call (relative viability < 0.9); settings: 10 µM

Row | Structure (SMILES) | cytotoxicity call
1 | COCC(=O)Nc1ccc2c(c1)[C@H]1C[C@@H](CC(=O)N3CCOCC3)O[C@H](CO)[C@H]1O2 | inactive
2 | C[C@H](CO)N1C[C@H](C)[C@@H](CN(C)Cc2ccc3c(c2)OCO3)Oc2ccc(NC(=O)Nc3cccc4ccccc34)cc2C1=O | inactive
3 | N=C(N=C(N)N)NCCc1ccccc1 | inactive
4 | C[C@H]1CN([C@@H](C)CO)C(=O)Cc2cc(NC(=O)c3ccncc3)ccc2O[C@@H]1CN(C)C(=O)Nc1ccc2c(c1)OCO2 | inactive
5 | COC(=O)C1C2CC3c4[nH]c5cc(OC)ccc5c4CCN3CC2CC(OC(=O)c2cc(OC)c(OC)c(OC)c2)C1OC (configuration not stated) | inactive
6 | C[C@@H]1CCCCO[C@@H](CN(C)C(=O)Nc2ccc(F)cc2)[C@H](C)CN([C@@H](C)CO)C(=O)c2cc(NC(=O)CCCN(C)C)ccc2O1 | inactive
7 | O=C(O)CSCC(=O)N1CCCCC1 | inactive
8 | C[C@@H]1CCCCO[C@@H](CN(C)Cc2ccc(Cl)c(Cl)c2)[C@H](C)CN([C@H](C)CO)C(=O)c2cc(NC(=O)Nc3ccc(C(F)(F)F)cc3)ccc2O1 | inactive
9 | C[C@@H]1CCCCO[C@@H](CN(C)Cc2ccncc2)[C@H](C)CN([C@H](C)CO)C(=O)c2cc(NC(=O)Nc3ccc(F)cc3)ccc2O1 | inactive
10 | Cc1ccc(S(=O)(=O)N(C)C[C@@H]2Oc3ccc(NC(=O)NC(C)C)cc3C(=O)N([C@H](C)CO)C[C@H]2C)cc1 | inactive
11 | O=C(C[C@H]1CC[C@@H]2[C@H](COC[C@H](O)CN2S(=O)(=O)c2ccc(Oc3ccccc3)cc2)O1)NCCN1CCCCC1 | inactive
12 | CC(C)CC(=O)C(=O)O | inactive
13 | C[C@H](CO)N1C[C@H](C)[C@H](CN(C)Cc2ccc3c(c2)OCO3)Oc2c(NC(=O)c3ccc(-c4nccs4)cc3)cccc2C1=O | inactive
14 | N[C@H]1CCOC2(CCCC2)C1 | inactive
15 | C[C@@H]1CN([C@@H](C)CO)C(=O)c2cc(NC(=O)Nc3ccc(C(F)(F)F)cc3)ccc2O[C@@H](C)CCCCO[C@H]1CN(C)C(=O)C1CCCCC1 | inactive
16 | C[C@H](CO)N1C[C@H](C)[C@H](CN(C)Cc2ccc3c(c2)OCO3)OCCCC[C@H](C)Oc2ccc(NS(=O)(=O)c3ccc(F)cc3)cc2C1=O | inactive
17 | Cc1ccc(S(=O)(=O)Nc2ccc3c(c2)C(=O)N([C@@H](C)CO)C[C@@H](C)[C@@H](CN(C)Cc2ccc(C(F)(F)F)cc2)OCCCC[C@@H](C)O3)cc1 | active
18 | C=C1C(C2(C)C=CC(=O)C(C)(C)C2CC(=O)OC)CCC2(C)C(c3ccoc3)OC(=O)C3OC132 (configuration not stated) | inactive
19 | CO[C@@H]1CN(C)C(=O)c2ccc(NC(=O)c3cnccn3)cc2OC[C@@H](C)N(C(=O)c2cnccn2)C[C@H]1C | inactive
20 | COc1ccc(NC(=O)Nc2ccc3c(c2)[C@H]2C[C@@H](CC(=O)NCc4ccncc4)O[C@@H](CO)[C@H]2O3)cc1 | inactive
21 | C[C@H]1CN([C@@H](C)CO)S(=O)(=O)c2ccc(C#CC(C)(C)O)cc2O[C@H]1CN(C)Cc1ccncc1 | inactive
22 | COc1ccc(NC(=O)Nc2ccc3c(c2)C(=O)N([C@H](C)CO)C[C@H](C)[C@H](CN(C)S(=O)(=O)c2ccccc2)OCCCC[C@H](C)O3)cc1 | inactive
23 | CCCC(=O)Nc1ccc2c(c1)OC[C@@H](C)N(S(=O)(=O)c1cn(C)cn1)C[C@@H](C)[C@H](OC)CN(C)C2=O | inactive
24 | C[C@@H]1CN([C@@H](C)CO)C(=O)c2cccc(NC(=O)Nc3ccc(F)cc3)c2O[C@H]1CN(C)Cc1ccc(-c2ccccc2)cc1 | active
25 | Cc1noc(C)c1NC(=O)N(C)C[C@@H]1Oc2ccc(NS(=O)(=O)c3cn(C)cn3)cc2CC(=O)N([C@@H](C)CO)C[C@@H]1C | inactive
26 | C[C@@H]1CN([C@H](C)CO)C(=O)c2cccc(NC(=O)Nc3ccc(C(F)(F)F)cc3)c2O[C@@H]1CN(C)C(=O)Nc1ccccc1 | active
27 | O=c1[nH]c(=S)nc2n(CCO)[nH]cc1-2 | inactive
28 | Cc1noc(C)c1NC(=O)Nc1ccc2c(c1)C(=O)N([C@H](C)CO)C[C@H](C)[C@H](CN(C)C(=O)Nc1ccccc1)OCCCC[C@@H](C)O2 | inactive

tested on: HepG2; assay: cytotoxicity call (relative viability < 0.9); settings: 10 µM

Row | Structure (SMILES) | cytotoxicity call
29 | C[C@@H]1CN([C@@H](C)CO)C(=O)CCCn2cc(nn2)CO[C@H]1CN(C)S(=O)(=O)c1ccc2ccccc2c1 | inactive
30 | Cn1cc(CN2CCC(C(=O)N[C@@H](c3ccc(F)cc3)c3ccc4ccccc4n3)CC2)c2ccccc21 | active
31 | C[C@H](CO)N1C[C@H](C)[C@@H](CN(C)Cc2ccc(Oc3ccccc3)cc2)Oc2ccc(NC(=O)Nc3cccc4ccccc34)cc2C1=O | inactive
32 | COc1ccccc1CNC(=O)C[C@H]1C[C@@H]2c3cc(NC(=O)C4CCOCC4)ccc3O[C@@H]2[C@@H](CO)O1 | inactive
33 | Cc1noc(C)c1NC(=O)Nc1cccc2c1O[C@H](CN(C)C(=O)Nc1cccc3ccccc13)[C@H](C)CN([C@H](C)CO)C2=O | inactive
34 | CO[C@H]1CN(C)C(=O)c2ccc(NC(=O)NC(C)C)cc2OC[C@H](C)N(Cc2ccc(-c3ccccn3)cc2)C[C@@H]1C | inactive
35 | CCC(=O)N[C@@H]1C=C[C@H](CC(=O)OC)O[C@H]1CO | inactive
36 | C[C@@H]1CN([C@@H](C)CO)C(=O)c2cccc(NC(=O)C3CCOCC3)c2O[C@@H]1CN(C)S(=O)(=O)c1ccc(Cl)cc1 | inactive
37 | Cn1cnc(S(=O)(=O)N2C[C@@H](O)COC[C@H]3O[C@@H](CC(=O)NC4CCC4)CC[C@@H]32)c1 | inactive
38 | COC(=O)[C@H](Cc1ccc(-n2cc(-c3cccc(/C=C/C(=O)NO)c3)nn2)cc1)N1CC2=C[C@H]([C@@H](O)Cc3ccccc3)n3c(=O)n(C)c(=O)n3[C@@H]2[C@@H](C2CC2)O1 | active
39 | C[C@H](CO)N1C[C@H](C)[C@@H](CN(C)Cc2ccc(C(F)(F)F)cc2)Oc2c(NC(=O)Nc3ccccc3)cccc2C1=O | inactive
40 | COCC(=O)Nc1ccc2c(c1)[C@H]1C[C@@H](CC(=O)N3CCOCC3)O[C@H](CO)[C@H]1O2 | inactive
41 | C[C@H](CO)N1C[C@H](C)[C@@H](CN(C)Cc2ccc3c(c2)OCO3)Oc2ccc(NC(=O)Nc3cccc4ccccc34)cc2C1=O | inactive
42 | N=C(N=C(N)N)NCCc1ccccc1 | active
43 | C[C@H]1CN([C@@H](C)CO)C(=O)Cc2cc(NC(=O)c3ccncc3)ccc2O[C@@H]1CN(C)C(=O)Nc1ccc2c(c1)OCO2 | inactive
44 | COC(=O)C1C2CC3c4[nH]c5cc(OC)ccc5c4CCN3CC2CC(OC(=O)c2cc(OC)c(OC)c(OC)c2)C1OC (configuration not stated) | active
45 | C[C@@H]1CCCCO[C@@H](CN(C)C(=O)Nc2ccc(F)cc2)[C@H](C)CN([C@@H](C)CO)C(=O)c2cc(NC(=O)CCCN(C)C)ccc2O1 | inactive
46 | O=C(O)CSCC(=O)N1CCCCC1 | inactive
47 | C[C@@H]1CCCCO[C@@H](CN(C)Cc2ccc(Cl)c(Cl)c2)[C@H](C)CN([C@H](C)CO)C(=O)c2cc(NC(=O)Nc3ccc(C(F)(F)F)cc3)ccc2O1 | inactive
48 | C[C@@H]1CCCCO[C@@H](CN(C)Cc2ccncc2)[C@H](C)CN([C@H](C)CO)C(=O)c2cc(NC(=O)Nc3ccc(F)cc3)ccc2O1 | inactive

Row | Structure (SMILES) | cytotoxicity call
49 | Cc1ccc(S(=O)(=O)N(C)C[C@@H]2Oc3ccc(NC(=O)NC(C)C)cc3C(=O)N([C@H](C)CO)C[C@H]2C)cc1 | inactive
50 | O=C(C[C@H]1CC[C@@H]2[C@H](COC[C@H](O)CN2S(=O)(=O)c2ccc(Oc3ccccc3)cc2)O1)NCCN1CCCCC1 | inactive
51 | CC(C)CC(=O)C(=O)O | inactive
52 | C[C@H](CO)N1C[C@H](C)[C@H](CN(C)Cc2ccc3c(c2)OCO3)Oc2c(NC(=O)c3ccc(-c4nccs4)cc3)cccc2C1=O | inactive
53 | N[C@H]1CCOC2(CCCC2)C1 | inactive
54 | C[C@@H]1CN([C@@H](C)CO)C(=O)c2cc(NC(=O)Nc3ccc(C(F)(F)F)cc3)ccc2O[C@@H](C)CCCCO[C@H]1CN(C)C(=O)C1CCCCC1 | inactive
55 | C[C@H](CO)N1C[C@H](C)[C@H](CN(C)Cc2ccc3c(c2)OCO3)OCCCC[C@H](C)Oc2ccc(NS(=O)(=O)c3ccc(F)cc3)cc2C1=O | inactive
56 | Cc1ccc(S(=O)(=O)Nc2ccc3c(c2)C(=O)N([C@@H](C)CO)C[C@@H](C)[C@@H](CN(C)Cc2ccc(C(F)(F)F)cc2)OCCCC[C@@H](C)O3)cc1 | active
57 | C=C1C(C2(C)C=CC(=O)C(C)(C)C2CC(=O)OC)CCC2(C)C(c3ccoc3)OC(=O)C3OC132 (configuration not stated) | inactive
58 | CO[C@@H]1CN(C)C(=O)c2ccc(NC(=O)c3cnccn3)cc2OC[C@@H](C)N(C(=O)c2cnccn2)C[C@H]1C | inactive
59 | COc1ccc(NC(=O)Nc2ccc3c(c2)[C@H]2C[C@@H](CC(=O)NCc4ccncc4)O[C@@H](CO)[C@H]2O3)cc1 | inactive
60 | C[C@H]1CN([C@@H](C)CO)S(=O)(=O)c2ccc(C#CC(C)(C)O)cc2O[C@H]1CN(C)Cc1ccncc1 | inactive
61 | COc1ccc(NC(=O)Nc2ccc3c(c2)C(=O)N([C@H](C)CO)C[C@H](C)[C@H](CN(C)S(=O)(=O)c2ccccc2)OCCCC[C@H](C)O3)cc1 | inactive
62 | CCCC(=O)Nc1ccc2c(c1)OC[C@@H](C)N(S(=O)(=O)c1cn(C)cn1)C[C@@H](C)[C@H](OC)CN(C)C2=O | inactive
63 | C[C@@H]1CN([C@@H](C)CO)C(=O)c2cccc(NC(=O)Nc3ccc(F)cc3)c2O[C@H]1CN(C)Cc1ccc(-c2ccccc2)cc1 | inactive
64 | Cc1noc(C)c1NC(=O)N(C)C[C@@H]1Oc2ccc(NS(=O)(=O)c3cn(C)cn3)cc2CC(=O)N([C@@H](C)CO)C[C@@H]1C | inactive
65 | C[C@@H]1CN([C@H](C)CO)C(=O)c2cccc(NC(=O)Nc3ccc(C(F)(F)F)cc3)c2O[C@@H]1CN(C)C(=O)Nc1ccccc1 | active
66 | O=c1[nH]c(=S)nc2n(CCO)[nH]cc1-2 | inactive
67 | Cc1noc(C)c1NC(=O)Nc1ccc2c(c1)C(=O)N([C@H](C)CO)C[C@H](C)[C@H](CN(C)C(=O)Nc1ccccc1)OCCCC[C@@H](C)O2 | inactive
